# Experimental data: PubChem BioAssay (NCATS)
# The shares of active, inactive and inconclusive entries below differ from those in the screen. Where the call is inconclusive, the potency comes from a doubtful curve fit. The source made the active and inactive calls. Calls follow the shape of the dose curve; as a rule, active = well fitted curve in the direction sought with a large enough effect; inconclusive = small, poorly fitted or top-dose-only effect, or another doubt; inactive = no such curve, though single readings can be large; an effect the other way counts as inactive or inconclusive.
# Assays:
# [1] = P-glycoprotein substrates identified in KB-8-5-11 adenocarcinoma cell line, qHTS therapeutic library screen (AID 1346987); also: nearly all actives have a fitted effect of over 65% in size
# In short: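 Steps: plate 500 KB-8-5-11 cells/well in DMEM + 10% FCS (colchicine removed); pin compounds in dose-response; incubate 72 h, 37 degree C, 5% CO2; add CellTiter-Glo, 5 min; read luminescence.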
# [2] = Primary fluorescence-based thiol-reactive (MSTI) qHTS assay for identification of artifact compounds. (AID 1845221);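 also: thiol-reactive compounds lower the probe fluorescence signal; nearly all actives have a fitted effect of over 65% in size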
# In short: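 One-hour, room-temperature, dark incubation of compound with 4 uM MSTI in PBS (pH 7.4, 2% DMSO) precedes a fluorescence read at 525 nm excitation, 598 nm emission; Hill-equation fitting yields concentration-response values.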
# [3] = system: CRL-7250; assay: Cytotoxic Profiling of Annotated Libraries Using Quantitative High-Throughput Screening (AID 1296008); conditions: Five cell lines viability, CellTiter-Glo ATP luminescence, 48-72 h; max response: hits give low values; also: nearly all actives have a fitted effect of over 60% in size
# In short: (§1)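 Cytotoxicity was measured as CellTiter-Glo ATP luminescence, read after 10 min at room temperature. Compound treatment of the cells lasted 48 or 72 hr at 37 degrees Celsius in a qHTS format.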
# [4] = system: HEK293; assay: as above; conditions: Five cell lines viability, CellTiter-Glo ATP luminescence, 48-72 h; max response: hits give low values
# In short: as §1
# [5] = system: HaCat; assay: as above; conditions: Five cell lines viability, CellTiter-Glo ATP luminescence, 48-72 h; max response: hits give low values
# In short: as §1
# [6] = system: CAOV3; assay: Primary qHTS to identify gynecologic anti-cancer compounds using libraries of approved drugs and bioactive compounds (AID 1345084); conditions: Gynecologic cancer cell panel viability, ATPlite luminescence, 48 h; series mostly up to 57.5 µM; also: nearly all actives have a fitted effect of over 55% in size; as to activity change, negative = cytotoxicity: % is scaled to controls: 0 for no effect and ±100 for the full control effect
# In short: (§2)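 In this quantitative HTS, cell killing is estimated from loss of ATP-dependent luciferase light. Cells see five compound concentrations over a 48 h exposure.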
# [7] = system: Es-2; assay: as above; conditions: Gynecologic cancer cell panel viability, ATPlite luminescence, 48 h; series mostly up to 57.5 µM
# In short: as §2
# [8] = system: JEG-3; assay: as above; conditions: Gynecologic cancer cell panel viability, ATPlite luminescence, 48 h; series mostly up to 57.5 µM
# In short: as §2
# [9] = system: OV90; assay: as above; conditions: Gynecologic cancer cell panel viability, ATPlite luminescence, 48 h; series mostly up to 57.5 µM
# In short: as §2
# [10] = system: PA-1; assay: as above; conditions: Gynecologic cancer cell panel viability, ATPlite luminescence, 48 h; series mostly up to 57.5 µM
# In short: as §2
# [11] = system: SKOV3; assay: as above; conditions: Gynecologic cancer cell panel viability, ATPlite luminescence, 48 h; series mostly up to 57.5 µM
# In short: as §2
# [12] = system: Tov-21-G; assay: as above; conditions: Gynecologic cancer cell panel viability, ATPlite luminescence, 48 h; activity change, negative = cytotoxicity: at 57.5 µM (top of the series)
# In short: as §2
# [13] = Primary qHTS for inhibitors of nuclear receptor binding SET domain protein 2 (NSD2) in an RCH-ACV wild type WT cells (2C) (AID 1645877); conditions: activity change, negative = cell killing: at 44.9 µM (top of the series); also: nearly all actives have a fitted effect of over 70% in size; as to activity change, negative = cell killing: % is scaled to controls: 0 for no effect and ±100 for the full control effect
# [14] = system: C33A; assay: Primary qHTS to identify gynecologic anti-cancer compounds using libraries of approved drugs and bioactive compounds (AID 1345084); conditions: Gynecologic cancer cell panel viability, ATPlite luminescence, 48 h; series mostly up to 57.5 µM; also: nearly all actives have a fitted effect of over 55% in size; as to activity change, negative = cytotoxicity: % is scaled to controls: 0 for no effect and ±100 for the full control effect
# In short: as §2
# [15] = system: CASKI; assay: as above; conditions: Gynecologic cancer cell panel viability, ATPlite luminescence, 48 h; activity change, negative = cytotoxicity: at 57.5 µM (top of the series)
# In short: as §2
# [16] = system: Tov112D; assay: as above; conditions: Gynecologic cancer cell panel viability, ATPlite luminescence, 48 h; activity change, negative = cytotoxicity: at 57.5 µM (top of the series)
# In short: as §2
# [17] = Primary qHTS for inhibitors of nuclear receptor binding SET domain protein 2 (NSD2) in an isogenic RCH-ACV NSD2 p.E1099K mutant (9B) (AID 1645876); also: nearly all actives have a fitted effect of over 70% in size
# [18] = system: Hek293T; assay: Primary qHTS to identify gynecologic anti-cancer compounds using libraries of approved drugs and bioactive compounds (AID 1345084); conditions: Gynecologic cancer cell panel viability, ATPlite luminescence, 48 h, control line for the selectivity index; series mostly up to 57.5 µM; also: nearly all actives have a fitted effect of over 55% in size; as to activity change, negative = cytotoxicity: % is scaled to controls: 0 for no effect and ±100 for the full control effect
# In short: as §2
# Potency is read from the fitted curve at half-maximal effect; tags tell the direction and shape of the fitted curve.
structure (smiles),measurement,setting,value
CN1CCN(C2CCN(C(=O)Nc3cc(Oc4ccc(NC(=O)C5(C(=O)Nc6ccc(F)cc6)CC5)c(F)c4)ccn3)CC2)CC1,Potency,[1],"inconclusive: 25.9 µM [inhibitor, single point]"
same,Potency,[2],inactive
same,Potency,[3],active: 9.2 µM
same,Potency,[4],active: 13 µM
same,Potency,[5],"inconclusive: 29.1 µM [inhibitor, single point]"
same,Potency,[6],"inconclusive: 11.2 µM [cytotoxic, partial curve, poor fit]"
same,Potency,[7],"inconclusive: 39.8 µM [cytotoxic, single point]"
same,Potency,[8],"inconclusive: 31.6 µM [cytotoxic, single point]"
same,Potency,[9],"inconclusive: 22.4 µM [cytotoxic, single point]"
same,Potency,[10],"inconclusive: 39.8 µM [cytotoxic, single point]"
same,Potency,[11],"inconclusive: 14.1 µM [cytotoxic, partial curve, poor fit]"
same,Potency,[12],"inconclusive: 22.4 µM [cytotoxic, partial curve]"
C=C[C@@]1(C)CCC2C(=CCC3[C@]2(C)CCC[C@@]3(C)C(=O)O)C1 (stereo partly drawn),Potency,[13],inactive
same,Potency,[2],"inconclusive: 37.7 µM [inhibitor, single point]"
same,Potency,[3],"inconclusive: 16.4 µM [inhibitor, partial curve, poor fit]"
same,Potency,[4],"inconclusive: 29.1 µM [inhibitor, single point]"
same,Potency,[5],"inconclusive: 0.013 µM [inhibitor, full curve, poor fit]"
same,Potency,[14],inactive
same,Potency,[15],"inconclusive: 39.8 µM [cytotoxic, single point]"
same,Potency,[10],"inconclusive: 44.7 µM [cytotoxic, partial curve, poor fit]"
same,Potency,[11],inactive
same,Potency,[16],"inconclusive: 28.2 µM [cytotoxic, single point]"
CN(C)CCOC(c1ccc(Cl)cc1)c1ccccn1 (stereo not drawn),Potency,[1],"inconclusive: 29.1 µM [inhibitor, partial curve, poor fit]"
same,Potency,[17],"inconclusive: 23.7 µM [inhibitor, single point]"
same,Potency,[13],"inconclusive: 33.5 µM [inhibitor, single point]"
same,Potency,[3],"inconclusive: 29.9 µM [inhibitor, single point]"
same,max response,[4],inactive: -23.8%
same,Potency,[5],"inconclusive: 33.5 µM [inhibitor, single point]"
same,Potency,[14],"inconclusive: 35.5 µM [cytotoxic, single point]"
same,Potency,[6],"inconclusive: 39.8 µM [cytotoxic, single point]"
same,Potency,[15],"inconclusive: 39.8 µM [cytotoxic, single point]"
same,Potency,[7],"inconclusive: 39.8 µM [cytotoxic, single point]"
same,Potency,[18],"inconclusive: 39.8 µM [cytotoxic, single point]"
same,Potency,[9],"inconclusive: 39.8 µM [cytotoxic, single point]"
same,Potency,[10],"inconclusive: 39.8 µM [cytotoxic, single point]"
same,Potency,[11],"inconclusive: 39.8 µM [cytotoxic, single point]"
same,Potency,[12],"inconclusive: 35.5 µM [cytotoxic, single point]"
same,Potency,[16],"inconclusive: 39.8 µM [cytotoxic, single point]"
Cc1ccc(NC(=O)N2CCN(c3nc(N)nc4sc(-c5cccnc5)nc34)CC2)cc1,Potency,[1],"inconclusive: 18.4 µM [inhibitor, partial curve]"
same,Potency,[17],active: 0.258 µM
same,Potency,[3],"inconclusive: 23.1 µM [inhibitor, single point]"
same,Potency,[4],"inconclusive: 29.1 µM [inhibitor, single point]"
same,Potency,[5],"inconclusive: 20.6 µM [inhibitor, single point]"
same,Potency,[6],"inconclusive: 31.6 µM [cytotoxic, single point]"
same,Potency,[11],"inconclusive: 25.1 µM [cytotoxic, partial curve, poor fit]"
CC(/C=C/C(=O)NO)=C\[C@@H](C)C(=O)c1ccc(N(C)C)cc1,Potency,[1],active: 0.58 µM
same,Potency,[2],"inconclusive: 0.474 µM [inhibitor, full curve]"
same,Potency,[3],active: 2.91 µM
same,Potency,[4],active: 1.16 µM
same,Potency,[5],active: 0.92 µM
same,Potency,[14],active: 3.55 µM
same,Potency,[6],active: 4.47 µM
same,Potency,[15],active: 1.58 µM
same,Potency,[18],active: 3.16 µM
same,Potency,[8],active: 1.41 µM
same,Potency,[9],active: 2.24 µM
same,Potency,[11],active: 1.58 µM
same,Potency,[12],active: 3.55 µM
same,Potency,[16],active: 1.78 µM
COc1ccccc1N1CCN(CC(C(=O)NC(C)(C)C)c2ccccc2)CC1 (stereo not drawn),Potency,[17],inactive
same,outcome,[3],inactive
same,Potency,[4],"inconclusive: 23.1 µM [inhibitor, single point]"
same,max response,[5],inactive: -3.82%
same,Potency,[14],"inconclusive: 31.6 µM [rising, partial curve, poor fit]"
same,Potency,[6],inactive
Cn1cc(S(=O)(=O)c2ccc(Cl)cc2)c2cccc(N3CCNCC3)c21,Potency,[3],"inconclusive: 23.1 µM [inhibitor, single point]"
same,Potency,[4],active: 6.51 µM
same,Potency,[5],"inconclusive: 29.1 µM [inhibitor, single point]"
same,Potency,[14],"inconclusive: 39.8 µM [cytotoxic, single point]"
same,Potency,[6],"inconclusive: 31.6 µM [cytotoxic, partial curve, poor fit]"
same,Potency,[15],"inconclusive: 31.6 µM [cytotoxic, single point]"
same,Potency,[7],"inconclusive: 39.8 µM [cytotoxic, single point]"
same,Potency,[18],"inconclusive: 28.2 µM [cytotoxic, partial curve, poor fit]"
same,Potency,[8],"inconclusive: 31.6 µM [cytotoxic, single point]"
same,Potency,[9],"inconclusive: 10 µM [cytotoxic, partial curve]"
same,Potency,[10],"inconclusive: 31.6 µM [cytotoxic, single point]"
same,Potency,[11],"inconclusive: 20 µM [cytotoxic, partial curve, poor fit]"
same,Potency,[12],active: 20 µM
C=C1C(=O)OC2/C=C(\C)CC/C=C(\C)CC(OC(C)=O)C12 (stereo not drawn),Potency,[1],inactive
same,Potency,[3],"inconclusive: 18.4 µM [inhibitor, single point]"
same,Potency,[4],"inconclusive: 20.6 µM [inhibitor, single point]"
same,Potency,[5],"inconclusive: 11.6 µM [inhibitor, partial curve]"
same,Potency,[6],"inconclusive: 20 µM [cytotoxic, single point]"
same,Potency,[15],inactive
same,Potency,[7],"inconclusive: 39.8 µM [cytotoxic, single point]"
same,Potency,[10],"inconclusive: 39.8 µM [cytotoxic, single point]"
same,Potency,[11],"inconclusive: 39.8 µM [cytotoxic, single point]"
Cc1nc2ccccn2c(=O)c1CCN1CCC(C(=O)c2ccc(F)cc2)CC1,Potency,[1],"inconclusive: 7.31 µM [inhibitor, partial curve]"
same,Potency,[13],"inconclusive: 10.6 µM [inhibitor, partial curve, poor fit]"
same,Potency,[3],"inconclusive: 29.9 µM [inhibitor, single point]"
same,Potency,[4],"inconclusive: 16.8 µM [inhibitor, partial curve]"
same,max response,[5],inactive: -15.4%
same,Potency,[11],"inconclusive: 2.24 µM [rising, partial curve]"
C=C1C(=O)OC2C3=C(C)C(=O)CC3C(C)CC(O)C12 (stereo not drawn),Potency,[17],"inconclusive: 29 µM [inhibitor, single point]"
same,Potency,[3],"inconclusive: 20.6 µM [inhibitor, single point]"
same,Potency,[4],"inconclusive: 29.1 µM [inhibitor, single point]"
same,Potency,[5],"inconclusive: 11.6 µM [inhibitor, partial curve, poor fit]"
same,Potency,[6],inactive
same,Potency,[10],inactive
CCC(C)C(=O)OC1C(C)C2(O)C(C=C(CO)CC3(O)C(=O)C(C)=CC32)C2C(C)(C)C12OC(=O)C(C)C (stereo not drawn),Potency,[17],"inconclusive: 0.0063 µM [inhibitor, full curve, poor fit]"
same,Potency,[13],"inconclusive: 0.01 µM [inhibitor, full curve]"
same,Potency,[3],"inconclusive: 0.0025 µM [inhibitor, full curve, poor fit]"
same,Potency,[4],"inconclusive: 10 µM [inhibitor, single point]"
same,Potency,[5],"inconclusive: 14.2 µM [inhibitor, single point]"
same,Potency,[14],"inconclusive: 0.0708 µM [rising, full curve, poor fit]"
same,Potency,[7],inconclusive: 0.0316 µM
same,Potency,[11],inactive
Cc1c(C)n(CCN(C)C)c2ccc(C(=O)OCCN(C)C)cc12,Potency,[1],"inconclusive: 14.6 µM [inhibitor, partial curve, poor fit]"
same,Potency,[17],"inconclusive: 29.9 µM [inhibitor, single point]"
same,Potency,[13],"inconclusive: 23.7 µM [inhibitor, single point]"
same,Potency,[3],"inconclusive: 6.68 µM [inhibitor, full curve, poor fit]"
same,Potency,[4],"inconclusive: 0.299 µM [inhibitor, full curve, poor fit]"
same,outcome,[5],inactive
same,Potency,[9],"inconclusive: 15.8 µM [cytotoxic, partial curve, poor fit]"
same,Potency,[10],"inconclusive: 14.1 µM [cytotoxic, partial curve, poor fit]"
same,Potency,[11],"inconclusive: 28.2 µM [cytotoxic, partial curve, poor fit]"
same,Potency,[12],inactive
Fc1ccc(C2CCNC[C@H]2COc2ccc3c(c2)OCO3)cc1 (stereo partly drawn),Potency,[1],"inconclusive: 20.6 µM [inhibitor, single point]"
same,Potency,[3],"inconclusive: 25.9 µM [inhibitor, single point]"
same,Potency,[4],"inconclusive: 29.1 µM [inhibitor, single point]"
same,Potency,[5],"inconclusive: 23.1 µM [inhibitor, single point]"
same,Potency,[14],"inconclusive: 28.2 µM [cytotoxic, single point]"
same,Potency,[6],"inconclusive: 39.8 µM [cytotoxic, single point]"
same,Potency,[15],"inconclusive: 39.8 µM [cytotoxic, partial curve, poor fit]"
same,Potency,[7],active: 22.4 µM
same,Potency,[9],"inconclusive: 22.4 µM [cytotoxic, single point]"
same,Potency,[11],"inconclusive: 39.8 µM [cytotoxic, single point]"
same,Potency,[12],"inconclusive: 39.8 µM [cytotoxic, single point]"
